# From publication PMC13083723 (Patterns, 2026)
# Among all 5,400 compounds or so, about 190 (3.5%) showed an effect of 50% or more. The list shows a part of the results.
# System: Vero-E6
# Assay: primary screen, phospholipidosis by LipidTOX staining; higher = more effect of the substance
# Details: 10 µM
# How it was run: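 Drug-induced phospholipidosis detected with HCS LipidTOX Red reagent in Vero-E6 cells. Compounds tested at 10 μM, with amiodarone (10 μM) as positive control and DMSO (0.1 v/v %) as vehicle.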
row,SMILES,result_ITMP [%]
1,N=C(NCCC[C@H](N)C(=O)O)N[N+](=O)[O-],1.32
2,Nc1nc(=O)c2c(CCc3ccc(C(=O)N[C@@H](CCC(=O)[O-])C(=O)[O-])cc3)c[nH]c2[nH]1,-3.84
3,CSc1nc(N)cc(Oc2ccc(-c3nnc(Nc4cccc(C(F)(F)F)c4)[nH]3)cc2)n1,-0.92
4,NC(Cc1ccc(Cl)cc1)C(=O)O (racemic),-7.04
5,CC(NCCc1ccc(O)cc1)C(O)c1ccc(O)cc1 (centres unmarked),-3.41
6,CCC1(C)CC(=O)NC1=O (centres unmarked),-6.19
7,CC(=O)Nc1ccc(OC(C)=O)cc1,-3.07
8,NC1CCN(c2c(F)cc3c(=O)c(C(=O)O)cn(C4CC4)c3c2Cl)C1 (centres unmarked),-1.64
9,CC(C)(O)CC(=O)NCCn1ccc2ncnc(Nc3ccc(Oc4cccc(C(F)(F)F)c4)c(Cl)c3)c21,19
10,O[C@H]1[C@H]2[C@H](O)CCCN2C[C@H]1O,0.57
11,Cc1ccc(/N=C/N(C)/C=N/c2ccc(C)cc2C)c(C)c1,1.63
12,COc1ccn2ncc(-c3nc4[nH]nc(NC(=O)c5ccc(F)cc5)c4cc3F)c2c1,-4.3
13,CC(C)c1cnn2c(NCc3ccccc3)cc(NCCCCCCN)nc12,53.6
14,CC[C@]1(O)C[C@H]2C[N@](CCc3c([nH]c4ccccc34)[C@@](C(=O)OC)(c3cc4c(cc3OC)N(C)[C@H]3[C@@](O)(C(N)=O)[C@H](O)[C@]5(CC)C=CCN6CC[C@]43[C@@H]65)C2)C1,9.74
15,CCCN(CCC)C1Cc2cc(OC)c(OC)cc2C1,-1.54
16,CCc1nn(CCCN2CCN(c3cccc(Cl)c3)CC2)c(=O)n1CCOc1ccccc1,6.52
17,O=S(=O)(c1cccc2cnccc12)N1CCCNCC1,0.23
18,O=C(c1ccc(F)c(F)c1Nc1ccc(I)cc1F)N1CC(O)([C@@H]2CCCCN2)C1,78.8
19,O=c1c2ccccc2[se]n1-c1ccccc1,-2.68

row,SMILES,result_ITMP [%]
1,COc1ncc(-c2ccc3c(Nc4cc(Oc5cc(F)cc(F)c5)cc(C(=O)O)c4)c(S(=O)(=O)NC4CC4)cnc3c2)c(OC)n1,-9.8
2,OCCN1CCN(CC/C=C2/c3ccccc3Sc3ccc(Cl)cc32)CC1,17.9
3,CN1c2ccccc2C(=O)N2CCc3c([nH]c4ccccc34)C21 (centres unmarked),8.12
4,CC[C@H]1[C@@H](O)[C@@H]2[C@H](CC[C@]3(C)[C@@H]([C@H](C)CCOS(=O)(=O)[O-])CC[C@@H]23)[C@@]2(C)CC[C@@H](O)C[C@@H]12,-1.93
5,NCCCS(=O)(=O)O,-2
6,Nc1nc(/C(=C/CC(=O)O)C(=O)N[C@@H]2C(=O)N3C(C(=O)O)=CCS[C@H]23)cs1,-2.36
7,CCCC[C@H](NC(=O)[C@@H]1[C@@H]2[C@H](CN1C(=O)[C@@H](NC(=O)NC1(CS(=O)(=O)C(C)(C)C)CCCCC1)C(C)(C)C)C2(C)C)C(=O)C(=O)NC1CC1,-1.27
8,N#Cc1cccc(-c2nc(-c3cccnc3)no2)c1,-5.61
9,C=CCN1CCc2cc(O)c(O)cc2C(c2ccccc2)C1 (centres unmarked),-1.01
10,O=C(NCCCCCCNC(=O)ON=C1CCCCC1)ON=C1CCCCC1,-6.95
11,CC(C)[C@H](O)C(=O)N[C@@H](C)C(=O)N[C@@H]1C(=O)N(C)CCc2ccccc21,-2.24
12,CN(C)CCC(c1ccc(Cl)cc1)c1ccccn1 (centres unmarked) [R4A_0004036_001 / SPE_A04553218],16
13,O=C(O)C(=O)c1cn(Cc2ccccc2)c2ccc(-c3ccc(OC(F)(F)F)cc3)cc12,0.43
14,NS(=O)(=O)c1nn2cc(-c3ccccc3)nc2s1,0.23
15,O=C([O-])CN(CCN(CC(=O)[O-])CC(=O)O)CCN(CC(=O)[O-])CC(=O)O,0.03
16,CN(C)CCOC(=O)C(c1ccccc1)C1(O)CCCC1 (centres unmarked),4.26
17,Nc1ccc(/N=N/c2ccccc2)c(N)n1,-2.17
18,C[C@H](N[C@@H](CCc1ccccc1)C(=O)O)C(=O)N1Cc2ccccc2C[C@H]1C(=O)O,-0.05
19,CO/N=C(/C(=O)NC1C(=O)N2C(C(=O)O)=C(C[N+]3(C)CCCC3)CSC12)c1csc(N)n1 (centres unmarked),-4.42

row,SMILES,result_ITMP [%]
1,O=c1ccc2cc(O[C@@H]3O[C@H](CO)[C@@H](O)[C@H](O)[C@H]3O)c(O)cc2o1,0.56
2,O=C(Nc1ccc(CN2CCOCC2)cc1)c1ccc(-c2cccc(Cl)c2)o1,56.3
3,CN1CCC(=C2c3ccccc3CCn3c(C=O)cnc32)CC1,-2.54
4,CC[N+](C)(CC)CCC[n+]1c(-c2ccccc2)c2cc(N)ccc2c2ccc(N)cc21,-12.1
5,O=C(O)c1ccccc1Nc1cccc(C(F)(F)F)c1,-2.29
6,NC1=NC(=O)N([C@H]2C[C@H](O)[C@@H](CO)O2)CN1,-4.19
7,O=C(Nc1cccc(Br)c1)c1cccc(S(=O)(=O)N2CCCCCC2)c1,-5.52
8,O=C(c1ccc(F)cc1)C1CCN(CCn2c(=S)[nH]c3ccccc3c2=O)CC1,-1.66
9,O=C(O)Cn1nnc(-c2cc(N3CCC(Oc4cc(F)ccc4Br)CC3)no2)n1,-2.15
10,COc1cc2nc(N3CCN(C(=O)COc4c(OC)cccc4C(C)C)CC3)nc(N)c2cc1OC,22.6
11,CN1CCCCC1Cn1cc(C(=O)c2cc([N+](=O)[O-])ccc2I)c2ccccc21 (centres unmarked),36.4
12,CC(=O)Nc1ccc(S(=O)(=O)c2ccc(NC(C)=O)cc2)cc1,-4.32
13,C[S+](CC[C@H](N)C(=O)[O-])C[C@H]1O[C@@H](n2cnc3c(N)ncnc32)[C@H](O)[C@@H]1O (some centres unmarked),-7.98
14,c1ccc(-c2nn3c(c2-c2ccnc4cc(OCCN5CCOCC5)ccc24)CCC3)nc1,-13.5
15,Clc1ccc(C(c2ccccc2Cl)C(Cl)Cl)cc1 (centres unmarked),-2.25
16,NS(=O)(=O)c1ccc2c(c1)C1C=CCC1C(c1ccc(Br)cc1)N2 (centres unmarked),-2.81
17,CCCCC/C=C\C/C=C\C/C=C\CCCCC(=O)O,-4.09
18,NC1CCN(c2cccnc2)C1 (centres unmarked),2.68
